From the RNAGym collection of RNA variant scans (doi:10.1073/pnas.2313332121) come the findings set out here.

The labels stand for the following.
B1: TPR 5TU (parent)
chain: GGAUCUUCUCGAUCUAACAAAAAAGACAAAUCUGCCACAAAGCUUGAGAGCAUCUUCGGAUGCAGAGGCGGCAGCCUUCGGUGGCGCGAUAGCGCCAACGUUCUCAACUAUGACACGCAAAACGCGUGCUCCGUUGAAUGGAGUUUAUCAUG

Variants at the background level are over-represented here.

This series covers variants of B1. Put plainly: polymerase ribozyme fitness, log enrichment relative to wild type (log ratio); higher = more active; in vitro selection for triplet polymerase activity. Summed up: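 The heterodimeric triplet polymerase ribozyme's subunits were each mutagenized into PCR-built libraries and transcribed. Every library was selected once, in triplicate, by annealing with a biotinylated primer, the partner subunit and triplets, incubating frozen at −7 °C, gel-excising extended constructs, capturing on streptavidin beads and running RT-PCR. Input and output libraries were Illumina-sequenced, with genotypes kept only at ≥10 input reads and ≥1 read per output. Fitness, from inverse-variance-weighted replicate averages, is the base-2 logarithm of genotype enrichment over wild-type enrichment.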
For A3C C32A G46A U78A, the “polymerase ribozyme fitness (log ratio)” value is at most -4.2.

Take A3G G50A A52G G71A G74A C125A: the “polymerase ribozyme fitness (log ratio)” value is at most -4.2.

Consider U4G A21U A26G A28C G62U G81C C95G A98U, for which the “polymerase ribozyme fitness (log ratio)” value is at most -4.2.

Take A3U G50U G80U C116A G124U: the “polymerase ribozyme fitness (log ratio)” value is at most -4.2.

For A3U C5G A12C U44C C85A C118U A142G, the “polymerase ribozyme fitness (log ratio)” value is at most -4.2.

Take U4C U7G A19U A20G A29U G70C A110C: the “polymerase ribozyme fitness (log ratio)” value is at most -4.2.

Consider U4G C76A C85G U127A A142G, for which the “polymerase ribozyme fitness (log ratio)” value is at most -4.2.

Regarding A3U U55A G81C A91U U148C G152C, the “polymerase ribozyme fitness (log ratio)” value was at most -4.2.

Regarding A3U C27G A30U A40U C51U G62C C85U A91G G100A G136A, the “polymerase ribozyme fitness (log ratio)” value was at most -4.2.

Consider C5G A23U U56C C57U C95U C105G, for which the “polymerase ribozyme fitness (log ratio)” value was at most -4.2.

For A3G G34A G42A C95G A122U U127C A138U U146G, the “polymerase ribozyme fitness (log ratio)” value was at most -4.2.

Consider A3U U7C U77G G84A G117A U148A, for which the “polymerase ribozyme fitness (log ratio)” value was at most -4.2.

Regarding C5G G59U A60G A97G U139G G141U, the “polymerase ribozyme fitness (log ratio)” value was at most -4.2.

With U4A A28U C51U U90C C93U A142U U144A U148C, the “polymerase ribozyme fitness (log ratio)” value was at most -4.2.

C5U C18U A60C C72A C93A: the “polymerase ribozyme fitness (log ratio)” value was at most -4.2.

Turning to A3C G50A U77C G88A G140U, the “polymerase ribozyme fitness (log ratio)” value was at most -4.2.

Turning to A3G A19U A23G A24G G34C G83U C95A U102G, the “polymerase ribozyme fitness (log ratio)” value was at most -4.2.

Take U4C G42U G50C U56A G94U A142G: the “polymerase ribozyme fitness (log ratio)” value was at most -4.2.

For the variant A3G C32A G50A G59U U78C C95U C105U G143C U151G, the “polymerase ribozyme fitness (log ratio)” value is at most -4.2.

As for A3G A64G C85U C96U C131G A147U, the “polymerase ribozyme fitness (log ratio)” value was at most -4.2.

In the case of C5G U9C C14A A19C U45A A47C G48A G84C A98G A107G C116A G133U A142C, the “polymerase ribozyme fitness (log ratio)” value was at most -4.2.

Turning to U4C A26G C35G C51U U55A U61A C95A C96U G140A, the “polymerase ribozyme fitness (log ratio)” value is at most -4.2.

C5G A52G U56A G81A C85U U90G U135A: the “polymerase ribozyme fitness (log ratio)” value is at most -4.2.

Take C5U C35U C79A: the “polymerase ribozyme fitness (log ratio)” value is at most -4.2.

As to U4C U6A C14G A30U U109G, the “polymerase ribozyme fitness (log ratio)” value was at most -4.2.

As for A3G A30G U45A G70C G83A, the “polymerase ribozyme fitness (log ratio)” value is at most -4.2.

For C5A A19C G83C C87A G92C G94A U109C G136U, the “polymerase ribozyme fitness (log ratio)” value is at most -4.2.

On to A3U G11U C35U C38U G74U C87U, for which the “polymerase ribozyme fitness (log ratio)” value is at most -4.2.

Take U4C U53C C72A U139C A150G: the “polymerase ribozyme fitness (log ratio)” value was at most -4.2.

Take A3G U9A C57G U61G C87A G94C C96U U130G C132G: the “polymerase ribozyme fitness (log ratio)” value was at most -4.2.

On to A3G A12G A24G G42C U44A G88C C105A A113U A121U C125A, for which the “polymerase ribozyme fitness (log ratio)” value is at most -4.2.

With A3U G25C G46C U78C C93U, the “polymerase ribozyme fitness (log ratio)” value was at most -4.2.

With A3U U45G A52C G59C G68A C93U, the “polymerase ribozyme fitness (log ratio)” value was at most -4.2.

As for C5A A21G A40G C76A C79G C99G U134G A147C, the “polymerase ribozyme fitness (log ratio)” value was at most -4.2.

On to U4A G50C C85G, for which the “polymerase ribozyme fitness (log ratio)” value is at most -4.2.

As to C5A C10G C85U C87A C95A, the “polymerase ribozyme fitness (log ratio)” value is at most -4.2.

As to U4A A26U A39U C96U, the “polymerase ribozyme fitness (log ratio)” value was at most -4.2.

Take U4A A19G G50C C72U G143U U145G: the “polymerase ribozyme fitness (log ratio)” value was at most -4.2.

With C5U A19U A28C C85U A110G C129A, the “polymerase ribozyme fitness (log ratio)” value is at most -4.2.

For U4C A40G G46A C69A A137C G140A, the “polymerase ribozyme fitness (log ratio)” value is at most -4.2.

Take U4G A22C U31C A91G U127A G133A: the “polymerase ribozyme fitness (log ratio)” value was at most -4.2.

As for U4C A22C A29C C32G G67C G80U G81A A122U, the “polymerase ribozyme fitness (log ratio)” value was at most -4.2.

C5A C14U C69U C96U G133C A147G: the “polymerase ribozyme fitness (log ratio)” value is at most -4.2.

In the case of C5U A21G U56A C75U G84A U90C A98C, the “polymerase ribozyme fitness (log ratio)” value was at most -4.2.

As for U4C C27A A47U C54A C57U U61A U77G C105G C108U G126C, the “polymerase ribozyme fitness (log ratio)” value was at most -4.2.

For the variant C5A U9G G68A A73G G133U U145A, the “polymerase ribozyme fitness (log ratio)” value was at most -4.2.

For the variant A3G A28U A29G C75G C95U C131A, the “polymerase ribozyme fitness (log ratio)” value was at most -4.2.

On to A3U C10G C35U C75U U139A, for which the “polymerase ribozyme fitness (log ratio)” value was at most -4.2.

For U4C U9A A66C, the “polymerase ribozyme fitness (log ratio)” value is at most -4.2.

For the variant U4C C51U C57A G100C U148G, the “polymerase ribozyme fitness (log ratio)” value is at most -4.2.

As to U4G A16U C38U C54U G83A G141C U145G, the “polymerase ribozyme fitness (log ratio)” value is at most -4.2.

U4G C36A A52G C57A G86U C116U G141C: the “polymerase ribozyme fitness (log ratio)” value was at most -4.2.

Regarding C5G C35U C95A A122C U146C A150C, the “polymerase ribozyme fitness (log ratio)” value is at most -4.2.

U4G C51G U61G A97G: the “polymerase ribozyme fitness (log ratio)” value is at most -4.2.

On to U4C C18U A52G A64U A73U G74C G83A A115C, for which the “polymerase ribozyme fitness (log ratio)” value was at most -4.2.

On to U4A A20U C79G G88C U104G G124U A138C, for which the “polymerase ribozyme fitness (log ratio)” value is at most -4.2.

As to A3G A16C C51A G88U C95A G117C, the “polymerase ribozyme fitness (log ratio)” value was at most -4.2.

Consider A3C U6G A23G A26C A40U C43G C96G G117A U139G U145A C149G, for which the “polymerase ribozyme fitness (log ratio)” value is at most -4.2.

With A3U G50A A64G U146C, the “polymerase ribozyme fitness (log ratio)” value was at most -4.2.

Turning to A3C A19U A37U A60U G74A G80A C99A C103A, the “polymerase ribozyme fitness (log ratio)” value is at most -4.2.

With A3U C85G C105G A113U, the “polymerase ribozyme fitness (log ratio)” value is at most -4.2.

Consider U4G G11U A26U A47C C85G G94A A110G A121U, for which the “polymerase ribozyme fitness (log ratio)” value was at most -4.2.

As for A3C A22C C96A A97U A106C A122C U144C, the “polymerase ribozyme fitness (log ratio)” value was at most -4.2.

As to C5G C10U U44A U53A G58U G83U U102G A122U, the “polymerase ribozyme fitness (log ratio)” value is at most -4.2.

With A3U A19C A66C C75U U134C A147C, the “polymerase ribozyme fitness (log ratio)” value is at most -4.2.

Take U4A C10G A52G G74A C76U G84C C118G G143U A150G: the “polymerase ribozyme fitness (log ratio)” value was at most -4.2.

On to C5A A22U A24U C38U A47G G48U A52U G74U C118A, for which the “polymerase ribozyme fitness (log ratio)” value is at most -4.2.

With C5A C14A A17U U45A G50A A107C C118U, the “polymerase ribozyme fitness (log ratio)” value is at most -4.2.

For the variant A3G G71A C85U G86A C93U C114U A150G, the “polymerase ribozyme fitness (log ratio)” value was at most -4.2.

A3U A19U A24U A28G A29U C32A A66G U146C: the “polymerase ribozyme fitness (log ratio)” value was at most -4.2.

With C5G C14U U56A U61G G86A U90G U134G, the “polymerase ribozyme fitness (log ratio)” value is at most -4.2.

Turning to C5G A16C A47C A52C C87U A91U G136C, the “polymerase ribozyme fitness (log ratio)” value is at most -4.2.

As for A3U U61G C76A C96G C105G, the “polymerase ribozyme fitness (log ratio)” value was at most -4.2.

Take A3U A39U C54G C99G A107C A142G: the “polymerase ribozyme fitness (log ratio)” value is at most -4.2.

Turning to A3U A16U A52C G94C A97C U144C, the “polymerase ribozyme fitness (log ratio)” value is at most -4.2.

C5G U6G C27G G136U U144G: the “polymerase ribozyme fitness (log ratio)” value was at most -4.2.

On to U4C G25U U53G G59A G80U G84A C87G A115G C118G, for which the “polymerase ribozyme fitness (log ratio)” value was at most -4.2.

Turning to A3C C14G A17C C38U A52U A60G U127A U151G, the “polymerase ribozyme fitness (log ratio)” value was at most -4.2.

Regarding A3C U6C A39G U78G G86U C123G U139C, the “polymerase ribozyme fitness (log ratio)” value was at most -4.2.

Regarding A3U A23U G46A U55G G80C G92A U111A G141C A147C, the “polymerase ribozyme fitness (log ratio)” value is at most -4.2.

Regarding C5A C54U C69G C96A U101G A110U, the “polymerase ribozyme fitness (log ratio)” value was at most -4.2.

For U4A C8G U15C U33A U109C C116U C131U A147U, the “polymerase ribozyme fitness (log ratio)” value was at most -4.2.

Turning to A3C A12C C14U G48C A49G A60U U61C C85G G136U, the “polymerase ribozyme fitness (log ratio)” value is at most -4.2.

As to C5U A24G G50A G94A G141C, the “polymerase ribozyme fitness (log ratio)” value was at most -4.2.
